# Test results reported in PubChem BioAssay AID1347073 (National Center for Advancing Translational Sciences (NCATS), 2019).
# In all, about 45,000 compounds went through this assay and about 200 (0.44%) were called active. Roughly 7% stayed inconclusive and do not appear here. The call rests on the fitted dose curve; in most records, active means well fitted activation curve with a large enough effect; inconclusive means small, poorly fitted or top-dose-only effect; inactive means no such curve, though single readings can be large or run the other way. Some of the results follow.
# Experiment: qHTS of TDP-43 Inhibitors: NCGC Sytravon Library Screen; further: 0% is about no effect; nearly all actives have a fitted effect of over 55% in size
# Settings: yeast TDP-43 toxicity rescue, BacTiter-Glo growth, 24 h; series mostly up to 46.1 µM; growth rescue (activation): at the top concentration
# In short: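 TDP-43-expressing yeast, pregrown in raffinose, seeded at OD600 0.02 in galactose medium with compound for 24 hr at 30 deg C. Growth read by BacTiter-Glo luminescence, so rescue of toxicity appears as activation.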
row,Structure (SMILES),growth rescue (activation)
1,CCOc1cc(NC(=S)NCc2ccco2)c(OCC)cc1NC(=O)CC,inactive: 6.18%
2,CCCNS(=O)(=O)c1ccc(CCC(=O)N2CCN(c3ccc(F)cc3)CC2)cc1,inactive: 15.7%
3,CCC(Oc1ccc(Cl)cc1)C(=O)N1CC(=O)Nc2ccccc21 (stereo not drawn),inactive: 3.5%
4,O=C(CSc1nc2nn(-c3ccccc3)c(=O)c-2c2n1CCCCC2)Nc1ccc(F)c(F)c1,inactive: -2.93%
5,CC(C)Nc1nnc(SCC(=O)NCc2ccc3c(c2)OCO3)s1,inactive: 3.72%
6,CC1(C(=O)NS(=O)(=O)C2CC2)CCCN(C(=O)c2cccc(OC(F)(F)F)c2)C1 (stereo not drawn),inactive: 1.35%
7,COC(=O)N=Nc1c(O)n(Cc2ccccc2)c2ccccc12,inactive: -2.83%
8,CCC1CCC(C(=O)NC(C(=O)NCCN2CCOCC2)C(C)C)CC1 (stereo not drawn),inactive: 2.23%
9,NC(CO)c1csc(Nc2ccc(C(F)(F)F)cn2)n1 (stereo not drawn),inactive: 21.5%
10,Cc1cc(F)ccc1S(=O)(=O)Nc1ccccc1C(=O)Nc1ncn[nH]1,inactive: -9.7%
11,COc1ccccc1CC(=O)NNC(=O)c1cccs1,inactive: -10.5%
12,Cc1cc(=O)[nH]c(N/N=C/c2c(C)oc3ccccc23)n1,inactive: 2.63%
13,O=C(c1ccc(F)cc1)C(CCCCCC(CN1CCOCC1)C(=O)c1ccc(F)cc1)CN1CCOCC1 (stereo not drawn),inactive: -8.91%
14,CCc1ccc(NC(=O)CN2C(=O)C(c3ccc(C)cc3)=NC23CCCCC3)cc1,inactive: 18.7%
15,Cc1ccc(SCC(=O)NC(=O)Nc2ccc3c(c2)OCCO3)cc1C,inactive: 5.65%
16,CN(C)C(CNC(=O)c1cc(Br)ccc1Cl)c1ccco1 (stereo not drawn),inactive: 6.85%
17,CN(C)c1ccc(NC(=S)NC(=O)/C=C/c2ccco2)cc1,inactive: 16.6%
18,NC(=O)C1(N2CCCCC2)CCN(C(=O)NC2CCCCC2)CC1,inactive: 3.18%
19,CCOc1ccccc1CNC(=O)C1CCN(c2nnc(-n3c(C)ccc3C)s2)CC1,inactive: 6.64%
20,COc1ccc(CC(=O)OCC(=O)Nc2ccc(C(=O)Nc3ccc(OC)cc3)cc2)cc1,inactive: -4.03%
21,CC(=O)c1cccc(N(C(=O)c2ccco2)C(C(=O)NC2CCCC2)c2ccc(N3CCOCC3)cc2)c1 (stereo not drawn),inactive: 16.9%
22,COc1cccc(C(C(=O)NC2CCCCC2)N(C(=O)c2csnn2)C2CC2)c1 (stereo not drawn),inactive: -5.95%
23,CC(=O)Nc1ccc(S(=O)(=O)N2CCC(NC(=O)C(Cc3cccc(F)c3)NC(C)=O)CC2)cc1 (stereo not drawn),inactive: 13.4%
24,CCOc1ccc(C2NC(=O)Cc3cc(OC)c(OC)cc32)cc1 (stereo not drawn),inactive: -6.67%
25,Cc1nc(=O)c(-c2ccccc2)c(C)n1CCCCCC(=O)O,inactive: 10.1%
26,CCCc1[nH]n(-c2nc3ccccc3s2)c(=O)c1C=NCCCN(CC)CC,inactive: -1.45%
27,CC(CCc1ccccc1)NC(=O)Cc1ccc([N+](=O)[O-])cc1 (stereo not drawn),inactive: 12.1%

row,Structure (SMILES),growth rescue (activation)
1,NS(=O)(=O)c1ccc(NC(=O)CSc2ncn[nH]2)cc1,inactive: -3.11%
2,COc1ccc(CC(=O)OCc2csc(CC(=O)Nc3ccc(C)cc3)n2)cc1,inactive: 1.64%
3,Cc1nc(-c2ccccc2)sc1C(=O)NN,inactive: 17%
4,Cc1nn(C)cc1[C@@H]1C[C@H]2CN(Cc3cccc(Cl)c3)C(=O)[C@]23CCCN13,inactive: -6.88%
5,CC(C)(O)C#Cc1ccc(CN2CCN(Cc3ccccc3)C(CCO)C2)s1 (stereo not drawn),inactive: 4.61%
6,COc1cccc(CNC(=O)C2CCN(c3nnc(-n4c(C)ccc4C)s3)CC2)c1OC,inactive: -2.87%
7,COc1cc(NC(=O)CN2CCN(C(=O)C3CCCO3)CC2)c(OC)cc1Cl (stereo not drawn),inactive: 3.97%
8,Cc1ccc(Cl)cc1N(C(=O)c1csnn1)C(C(=O)NC1CCCC1)c1ccco1 (stereo not drawn),inactive: 14.1%
9,CCCn1c(=O)c(C(=O)NCc2ccc(OC)c(OC)c2)c(O)c2ccccc21,inactive: 12.7%
10,COc1ccc(S(=O)(=O)N2CCN(CCCOc3ccc(F)cc3)CC2)cc1OC,inactive: -4.28%
11,O=C(c1ccco1)N1N=C2CCCCCC2C1(O)C(F)(F)F (stereo not drawn),inactive: 29%
12,Cc1cccn2c(=O)c3cc(C(=O)NC4CCCC4)c(=N)n(C4CCCCC4)c3nc12,inactive: 9.14%
13,CCNC(=S)N1CCN(S(=O)(=O)/C=C/c2ccccc2)CC1,inactive: -13%
14,CCOC(=O)C1CCN(C(=O)CNC(=O)c2nn(-c3ccc(OC)cc3OC)c(=O)c3ccccc23)CC1,inactive: -9.75%
15,CN(C)C(=S)Nc1ccc2ccccc2c1,inactive: 0.382%
16,CCOc1ccc(/C=N/NC2=NCCCCC2)cc1,inactive: -3.53%
17,N#Cc1ccc(C(=O)Nc2ccc(S(=O)(=O)NC3=NCCCCC3)cc2)cc1,inactive: 7.08%
18,S=C(NNc1ccnc2cc(Cl)ccc12)Nc1ccccc1Cl,inactive: 3.52%
19,CC1(C(=O)NCCc2ccccc2)Cc2c(-c3cccc(C(N)=O)c3)ccnc2O1 (stereo not drawn),inactive: 9.53%
20,CN(C)c1oc(COc2ccc(F)cc2)nc1C#N,inactive: 31.2%
21,CCOc1ccc(N(CC(=O)N2CCCCC2)S(=O)(=O)c2ccc(Cl)cc2)cc1,inactive: -14.1%
22,Cc1cc(S(=O)(=O)NCc2ccccc2)ccc1OCC(=O)NCc1cccnc1,inactive: 4.68%
23,CCC(Sc1nc2ccccc2o1)C(=O)O (stereo not drawn),inactive: -0.0658%
24,CC(=O)Nc1cccc(-c2ccnc3c2CC(C(=O)Nc2ccc(Cl)cc2)O3)c1 (stereo not drawn),inactive: 11.8%
25,O=C1CSC(c2ccncc2)N1Cc1ccccc1 (stereo not drawn),inactive: 1.09%
26,COc1ccc(S(=O)(=O)N(C)C)cc1NC(=O)CSc1nnc(-c2cccnc2)o1,inactive: 10.4%
